# Data published in the supplement of paper PMC8728848.
# Some of the results follow.
# Key:
# Experiment in all cases: glycan array binding signal (z-score within array); higher = stronger binding
# Settings in all cases: glycan notation: IUPAC condensed, linker removed
# Fuc(a1-2)Gal = biological target: Fuc(a1-2)Gal
# Outline: (§1)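 The binding signal is a Z-score computed within each array and averaged over linkers. Arrays of the same protein sequence at different concentrations or buffers were also averaged together. Data originate from 3228 arrays in the Consortium for Functional Glycomics database, kept only where the protein sequence was available.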
# Fuc(a1-2)Gal(b1-3)GalNAc = biological target: Fuc(a1-2)Gal(b1-3)GalNAc
# Outline: as §1
# [1] = biological target: Fuc(a1-2)Gal(b1-3)GalNAc(a1-3)[Fuc(a1-2)]Gal(b1-4)Glc
# Outline: as §1
# [2] = biological target: Fuc(a1-2)Gal(b1-3)GalNAc(a1-3)[Fuc(a1-2)]Gal(b1-4)GlcNAc
# Outline: as §1
# [3] = biological target: Fuc(a1-2)Gal(b1-3)GalNAc(b1-3)Gal
# Outline: as §1
# [4] = biological target: Fuc(a1-2)Gal(b1-3)GalNAc(b1-3)Gal(a1-4)Gal(b1-4)Glc
# Outline: as §1
# [5] = biological target: Fuc(a1-2)Gal(b1-3)GalNAc(b1-4)[Neu5Ac(a2-3)]Gal(b1-4)Glc
# Outline: as §1
# Fuc(a1-2)Gal(b1-3)GlcNAc = biological target: Fuc(a1-2)Gal(b1-3)GlcNAc
# Outline: as §1
# [6] = biological target: Fuc(a1-2)Gal(b1-3)GlcNAc(b1-2)Man(a1-3)[Fuc(a1-2)Gal(b1-3)GlcNAc(b1-2)Man(a1-6)]Man(b1-4)GlcNAc(b1-4)GlcNAc
# Outline: as §1
# [7] = biological target: Fuc(a1-2)Gal(b1-3)GlcNAc(b1-2)Man(a1-3)[Fuc(a1-2)Gal(b1-3)GlcNAc(b1-2)Man(a1-6)]Man(b1-4)GlcNAc(b1-4)[Fuc(a1-6)]GlcNAc
# Outline: as §1
# [8] = biological target: Fuc(a1-2)Gal(b1-3)GlcNAc(b1-3)Gal(b1-4)Glc
# Outline: as §1
# [9] = biological target: Fuc(a1-2)Gal(b1-3)GlcNAc(b1-3)GalNAc
# Outline: as §1
# [10] = biological target: Fuc(a1-2)Gal(b1-3)GlcNAc(b1-3)[Fuc(a1-2)Gal(b1-3)GlcNAc(b1-6)]GalNAc
# Outline: as §1
# [11] = biological target: Fuc(a1-2)Gal(b1-3)GlcNAc(b1-3)[Gal(b1-4)GlcNAc(b1-6)]Gal(b1-4)Glc
# Outline: as §1
# [12] = biological target: Fuc(a1-2)Gal(b1-3)GlcNAc(b1-3)[Neu5Ac(a2-6)Gal(b1-4)GlcNAc(b1-6)]Gal(b1-4)Glc
# Outline: as §1
# [13] = biological target: Fuc(a1-2)Gal(b1-3)GlcNAc6S
# Outline: as §1
# [14] = biological target: Fuc(a1-2)Gal(b1-3)[Fuc(a1-4)]GlcNAc
# Outline: as §1
# [15] = biological target: Fuc(a1-2)Gal(b1-3)[Fuc(a1-4)]GlcNAc(b1-2)Man(a1-3)[Fuc(a1-2)Gal(b1-3)[Fuc(a1-4)]GlcNAc(b1-2)Man(a1-3)]Man(b1-4)GlcNAc(b1-4)GlcNAc
# Outline: as §1
# [16] = biological target: Fuc(a1-2)Gal(b1-3)[Fuc(a1-4)]GlcNAc(b1-2)Man(a1-3)[Fuc(a1-2)Gal(b1-3)[Fuc(a1-4)]GlcNAc(b1-2)Man(a1-6)]Man(b1-4)GlcNAc(b1-4)[Fuc(a1-6)]GlcNAc(b1-4)[Fuc(a1-6)]GlcNAc
# Outline: as §1
# [17] = biological target: Fuc(a1-2)Gal(b1-3)[Fuc(a1-4)]GlcNAc(b1-3)[Fuc(a1-3)[Gal(b1-4)]GlcNAc(b1-6)]Gal(b1-4)Glc
# Outline: as §1
# [18] = biological target: Fuc(a1-2)Gal(b1-3)[Fuc(a1-4)]GlcNAc(b1-3)[Gal(b1-4)GlcNAc(b1-6)]Gal(b1-4)Glc
# Outline: as §1
# [19] = biological target: Fuc(a1-2)Gal(b1-4)Fuc(a1-3)]GlcNAc(b1-2)Man(a1-3)[Fuc(a1-2)Gal(b1-4)[Fuc(a1-3)]GlcNAc(b1-2)Man(a1-6)]Man(b1-4)GlcNAc(b1-4)GlcNAc
# Outline: as §1
# Fuc(a1-2)Gal(b1-4)Glc = biological target: Fuc(a1-2)Gal(b1-4)Glc
# Outline: as §1
# Fuc(a1-2)Gal(b1-4)Glc6S = biological target: Fuc(a1-2)Gal(b1-4)Glc6S
# Outline: as §1
# Fuc(a1-2)Gal(b1-4)GlcNAc = biological target: Fuc(a1-2)Gal(b1-4)GlcNAc
# Outline: as §1
# [20] = biological target: Fuc(a1-2)Gal(b1-4)GlcNAc(b1-2)Man
# Outline: as §1
# [21] = biological target: Fuc(a1-2)Gal(b1-4)GlcNAc(b1-2)Man(a1-3)[Fuc(a1-2)Gal(b1-4)GlcNAc(b1-2)Man(a1-6)]Man(b1-4)GlcNAc(b1-4)GlcNAc
# Outline: as §1
# [22] = biological target: Fuc(a1-2)Gal(b1-4)GlcNAc(b1-2)Man(a1-3)[Fuc(a1-2)Gal(b1-4)GlcNAc(b1-2)Man(a1-6)]Man(b1-4)GlcNAc(b1-4)[Fuc(a1-6)]GlcNAc
# Outline: as §1
# [23] = biological target: Fuc(a1-2)Gal(b1-4)GlcNAc(b1-2)[Fuc(a1-2)Gal(b1-4)GlcNAc(b1-4)]Man(a1-3)[Fuc(a1-2)Gal(b1-4)GlcNAc(b1-2)Man(a1-6)]Man(b1-4)GlcNAc(b1-4)GlcNAc
# Outline: as §1
# [24] = biological target: Fuc(a1-2)Gal(b1-4)GlcNAc(b1-3)Gal(b1-4)GlcNAc
# Outline: as §1
# [25] = biological target: Fuc(a1-2)Gal(b1-4)GlcNAc(b1-3)Gal(b1-4)GlcNAc(b1-2)Man(a1-3)[Fuc(a1-2)Gal(b1-4)GlcNAc(b1-3)Gal(b1-4)GlcNAc(b1-2)Man(a1-6)]Man(b1-4)GlcNAc(b1-4)GlcNAc
# Outline: as §1
# [26] = biological target: Fuc(a1-2)Gal(b1-4)GlcNAc(b1-3)Gal(b1-4)GlcNAc(b1-3)Gal(b1-4)GlcNAc
# Outline: as §1
# [27] = biological target: Fuc(a1-2)Gal(b1-4)GlcNAc(b1-3)GalNAc
# Outline: as §1
# [28] = biological target: Fuc(a1-2)Gal(b1-4)GlcNAc(b1-3)[Fuc(a1-2)Gal(b1-4)GlcNAc(b1-6)]GalNAc
# Outline: as §1
# [29] = biological target: Fuc(a1-2)Gal(b1-4)GlcNAc(b1-3)[Fuc(a1-3)[Gal(b1-4)]GlcNAc(b1-6)]Gal(b1-4)Glc
# Outline: as §1
# [30] = biological target: Fuc(a1-2)Gal(b1-4)GlcNAc(b1-6)GalNAc
# Outline: as §1
# [31] = biological target: Fuc(a1-2)Gal(b1-4)GlcNAc6S
# Outline: as §1
binder,measurement,setting,value
DC-ASGPR Long (Homo sapiens) (protein) MTRTYENFQYLENKVKVQGFKNGPLPLQSLLQRLRSGPCHLLLSLGLGLLLLVIICVVGFQNSKFQRDLVTLRTDFSNFTSNTVAEIQALTSQGSSLEETIASLKAEVEGFKQERQAGVSELQEHTTQKAHLGHCPHCPSVCVPVHSEMLLRVQQLVQDLKKLTCQVATLNNNASTEGTCCPVNWVEHQDSCYWFSHSGMSWAEAEKYCQLKNAHLVVINSREEQNFVQKYLGSAYTWMGLSDPEGAWKWVDGTDYATGFQNWKPGQPDDWQGHGLGGGEDCAHFHPDGGWNDDVCQRPYHWVCEAGLGQTSQESH,glycan array binding signal (z-score),Fuc(a1-2)Gal,-0.246
same,glycan array binding signal (z-score),Fuc(a1-2)Gal(b1-3)GalNAc,-0.268
same,glycan array binding signal (z-score),[1],-0.45
same,glycan array binding signal (z-score),[2],-0.467
same,glycan array binding signal (z-score),[3],-0.358
same,glycan array binding signal (z-score),[4],-0.018
same,glycan array binding signal (z-score),[5],0.292
same,glycan array binding signal (z-score),Fuc(a1-2)Gal(b1-3)GlcNAc,-0.309
same,glycan array binding signal (z-score),[6],-1.26
same,glycan array binding signal (z-score),[7],-0.382
same,glycan array binding signal (z-score),[8],-0.336
same,glycan array binding signal (z-score),[9],-0.278
same,glycan array binding signal (z-score),[10],-0.391
same,glycan array binding signal (z-score),[11],-0.124
same,glycan array binding signal (z-score),[12],-0.294
same,glycan array binding signal (z-score),[13],0.23
same,glycan array binding signal (z-score),[14],-0.302
same,glycan array binding signal (z-score),[15],0.138
same,glycan array binding signal (z-score),[16],0.45
same,glycan array binding signal (z-score),[17],-0.381
same,glycan array binding signal (z-score),[18],-0.417
same,glycan array binding signal (z-score),[19],0.217
same,glycan array binding signal (z-score),Fuc(a1-2)Gal(b1-4)Glc,-0.229
same,glycan array binding signal (z-score),Fuc(a1-2)Gal(b1-4)Glc6S,0.033
same,glycan array binding signal (z-score),Fuc(a1-2)Gal(b1-4)GlcNAc,-0.356
same,glycan array binding signal (z-score),[20],-0.358
same,glycan array binding signal (z-score),[21],-0.517
same,glycan array binding signal (z-score),[22],-0.23
same,glycan array binding signal (z-score),[23],1.48
same,glycan array binding signal (z-score),[24],0.657
same,glycan array binding signal (z-score),[25],0.075
same,glycan array binding signal (z-score),[26],-0.571
same,glycan array binding signal (z-score),[27],-0.265
same,glycan array binding signal (z-score),[28],-0.108
same,glycan array binding signal (z-score),[29],-0.219
same,glycan array binding signal (z-score),[30],1.92
same,glycan array binding signal (z-score),[31],-0.271
